Test results taken from US10889573B2, “Anthelmintic quinoline-3-carboxamide derivatives” (Bayer Animal Health GMBH, priority 2016, dated 2021).
Like-named read-outs stand apart in the source and are kept apart here. Some entries share one result that the patent states for a list of compounds. At least one compound was matched to its structure with a doubt left.

What was measured:
[1] = system: Nippostrongylus brasiliensis; assay: In vitro assay 2: Nippostrongylus brasiliensis (NIPOBR), acetylcholine esterase readout
In short: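 Readout was acetylcholine esterase activity released into the medium, compared with negative control, after exposing adult worms to compounds at final 10 ppm (10 μg/ml) or 1 ppm (1 μg/ml). Worms were first washed in antibiotic/amphotericin B-containing saline; compounds were dissolved in DMSO.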

Cooperia curticei = conditions: after 5 days
Haemonchus contortus = conditions: after 5 days

Row | Compound | activity (reduction of AChE compared to negative control) ([1]; 1 μg/ml) | activity (larval mortality) (Cooperia curticei; 4 ppm) [%] | activity (larval mortality) (Cooperia curticei; 20 ppm) [%] | activity (larval mortality) (Haemonchus contortus; 4 ppm) [%] | activity (larval mortality) (Haemonchus contortus; 20 ppm) [%] | activity (reduction of AChE compared to negative control) ([1]; 10 μg/ml)
1 | CN(C)c1c(C(=O)N[C@H]2CCOc3ccccc32)cnc2c(-c3cccc(Cl)c3Cl)c(Cl)ccc12 [Example 207] | higher than 80% | 100 | 100 | 90 | 100 | 
2 | CN(C)c1c(C(=O)N[C@H]2CCOc3ccccc32)cnc2c(-c3cc(Cl)cc(Cl)c3)c(Cl)ccc12 [Example 208] | higher than 80% | 90 | 100 |  | 80 | 
3 | O=C(N[C@H]1CCOc2ccccc21)c1cnc2c(-c3cccc(Cl)c3Cl)ccc(F)c2c1N1CCOCC1 [Example 209] | higher than 80% | 100 | 100 | 90 | 90 | 
4 | O=C(N[C@H]1CCOc2ccccc21)c1cnc2c(-c3cc(Cl)cc(Cl)c3)ccc(F)c2c1N1CCOCC1 [Example 210] | higher than 80% | 100 | 100 | 80 | 90 | 
5 | Cc1ccc(-c2cccc(Cl)c2Cl)c2ncc(C(=O)N[C@H]3CCOc4ccccc43)c(N3CCOCC3)c12 [Example 214] | higher than 80% | 100 | 100 | 100 | 100 | 
6 | Cc1ccc(-c2cc(Cl)cc(Cl)c2)c2ncc(C(=O)N[C@H]3CCOc4ccccc43)c(N3CCOCC3)c12 [Example 215] | higher than 80% | 100 | 100 | 80 | 100 | 
7 | Cc1ccc(-c2cc(Cl)cc(Cl)c2)c2ncc(C(=O)N[C@H]3CCOc4ccccc43)c(N(C)C)c12 [Example 217] | higher than 80% | 100 | 100 | 80 | 90 | 
8 | Cc1ccc(-c2cccc(Cl)c2Cl)c2ncc(C(=O)N[C@H]3CCOc4ccccc43)c(N(C)C)c12 [Example 218] | higher than 80% | 90 | 100 | 80 | 100 | 
9 | Cc1c(F)cccc1-c1cccc2c(N3CCOCC3)c(C(=O)N[C@H]3CCOc4ccccc43)cnc12 [Example 220] | higher than 80% |  | 90 |  | 90 | 
10 | O=C(N[C@H]1CCOc2ccccc21)c1cnc2c(-c3cc(F)cc(F)c3F)cccc2c1N1CCOCC1 [Example 222] | higher than 80% | 100 | 100 | 100 | 100 | 
11 | O=C(N[C@H]1CCOc2ccccc21)c1cnc2c(-c3cccc4scnc34)cccc2c1N1CCOCC1 [Example 224] | higher than 80% | 80 | 100 |  | 100 | 
12 | CNc1c(C(=O)N[C@H]2CCOc3ccccc32)cnc2c(-c3cccc(Cl)c3)cccc12 [Example 229] | higher than 80% | 90 | 90 | 90 | 90 | 
13 | CNc1c(C(=O)N[C@H]2CCOc3ccccc32)cnc2c(-c3cccc(Cl)c3F)cccc12 [Example 236] | higher than 80% | 90 | 100 | 90 | 90 | 
14 | CNc1c(C(=O)N[C@H]2CCOc3ccccc32)cnc2c(-c3cc(Cl)cc(Cl)c3Cl)cccc12 [Example 237] | higher than 80% | 100 | 100 | 100 | 100 | 
15 | CN(C)c1c(C(=O)N[C@H]2CCOc3ccccc32)cnc2c(-c3c(F)ccc(F)c3F)cccc12 [Example 247] | higher than 80% | 90 | 100 | 100 | 100 | 
16 | CON(C)c1c(C(=O)N[C@H]2CCOc3ccccc32)cnc2c(-c3cc(Cl)cc(Cl)c3)cccc12 [Example 250] | higher than 80% |  | 80 |  | 90 | 

Row | Compound | activity (reduction of AChE compared to negative control) ([1]; 1 μg/ml) | activity (larval mortality) (Cooperia curticei; 4 ppm) [%] | activity (larval mortality) (Cooperia curticei; 20 ppm) [%] | activity (larval mortality) (Haemonchus contortus; 4 ppm) [%] | activity (larval mortality) (Haemonchus contortus; 20 ppm) [%] | activity (reduction of AChE compared to negative control) ([1]; 10 μg/ml)
17 | O=C(N[C@H]1CCOc2ccccc21)c1cnc2c(-c3cccc4ncsc34)cccc2c1N1CCOCC1 [Example 251] | higher than 80% |  | 90 |  | 90 | 
18 | O=C(N[C@H]1CCOc2ccccc21)c1cnc2c(-c3cc(Cl)cc(Cl)c3)cccc2c1N1CCC[C@H]1C(=O)O [Example 266] | higher than 80% | 100 | 100 | 100 | 100 | 
19 | O=C(N[C@H]1CCOc2ccccc21)c1cnc2c(-c3cc(Cl)cc(Cl)c3)cccc2c1NC1CC1 [Example 273] | higher than 80% | 100 |  |  | 80 | 
20 | O=C(N[C@H]1CCOc2ccccc21)c1cnc2c(-c3cc(Cl)cc(Cl)c3)cccc2c1N1CCC[C@@H]1C(=O)O [Example 274] | higher than 80% | 100 | 100 | 100 | 100 | 
21 | O=C(N[C@H]1CCOc2ccccc21)c1cnc2c(-c3cccc4ncoc34)cccc2c1N1CCOCC1 [Example 280] | higher than 80% | 80 | 100 |  | 100 | 
22 | CN(C)c1cc(-c2cccc3c(N(C)C)c(C(=O)N[C@H]4CCOc5ccccc54)cnc23)ccc1Cl [Example 307] | higher than 80% |  | 80 | 80 | 80 | 
23 | COc1ccc2c(N3CCOCC3)c(C(=O)N[C@H]3CCOc4ccccc43)cnc2c1-c1cccc(Cl)c1Cl [Example 309] | higher than 80% | 100 | 100 | 100 | 100 | 
24 | COc1ccc2c(N3CCOCC3)c(C(=O)N[C@H]3CCOc4ccccc43)cnc2c1-c1cc(Cl)cc(Cl)c1 [Example 310] | higher than 80% |  | 80 |  | 80 | 
25 | COc1ccc2c(N(C)C)c(C(=O)N[C@H]3CCOc4ccccc43)cnc2c1-c1cccc(Cl)c1Cl [Example 326] | higher than 80% | 90 | 100 | 90 | 100 | 
26 | COc1ccc2c(N(C)C)c(C(=O)N[C@H]3CCOc4ccccc43)cnc2c1-c1cc(Cl)cc(Cl)c1 [Example 327] | higher than 80% | 100 | 100 | 80 | 90 | 
27 | O=C(NC1CCOc2ccccc21)c1cnc2c(-c3cc(Cl)cc(Cl)c3)cccc2c1N1CCC(CO)C1 (stereo not drawn) [Example 329] | higher than 80% | 100 | 100 | 90 | 100 | 
28 | COc1c(C(=O)N[C@H]2CCOc3ccccc32)cnc2c(-c3cc(Cl)c(F)c(Cl)c3)cccc12 [Example 333] | higher than 80% | 80 | 90 |  | 80 | higher than 80%
29 | O=C(N[C@H]1CCOc2ccccc21)c1cnc2c(-c3cc(Cl)cc(Cl)c3)cccc2c1OC1CCOCC1 [Example 339] | higher than 80% | 80 | 90 | 100 |  | higher than 80%
30 | Cc1c(C(=O)N[C@H]2CCOc3ccccc32)cnc2c(-c3cc(Cl)cc(Cl)c3)cccc12 [Example 353] | higher than 80% | 100 | 100 | 90 | 100 | 
31 | CCCc1c(C(=O)N[C@H]2CCOc3ccccc32)cnc2c(-c3cc(Cl)cc(Cl)c3)cccc12 [Example 356] | higher than 80% | 90 | 100 | 80 | 90 | 
